According to patent US20240307342A1, “Treatment of the adverse cardiovascular effects of cannabinoids” (GreenStone Biosciences, Inc., priority 2022, published 2024):

Test system: human embryonic stem cell-derived cardiomyocytes (H7 hESC-CMs)
Test: cytotoxicity in cardiomyocytes

CCCCCc1cc(O)c2c(c1)OC(C)(C)[C@@H]1CCC(C)=C[C@@H]21 [Δ^9-THC, (6aR,10aR)-6,6,9-trimethyl-3-pentyl-6a,7,8,10a-tetrahydro-6H-benzo[c]chromen-1-ol]
cytotoxicity: without any adverse effect
